Our source for the Kd values is paper PMC8789800.

The target in the assay is carboxyfluoresceine (CF) labeled ORF45(16-40) peptide (Human herpesvirus 8 type P (KSHV)). In words: fluorescence polarisation. For orientation: Fluorescence polarisation rises when a labelled molecule tumbles more slowly, as on binding a larger partner.

Usually Kd stands for the equilibrium constant for the complex coming apart. A high value points to a looser complex.

In the case of “nonphosphorylated ERK2 (from UniProt P28482 1-360) (enzyme)”, the dissociation constant Kd is 19.9 µM.
